{
  "source": "the supplement of paper PMC8728848",
  "binders": {"B1": {"name": "LKITALY (Gibberella zeae) (protein)", "chain": "MGNFHESSNNIWLEDGHILHAECGNGEGDYVESTLDLDYYIGNDDGSFSWGGENFSGSASNITLDIEGDDNIPVLRAELNPMDGDPVEANVNLSERIGNDCGTLIFLA"}},
  "experiment_in_all_cases": "glycan array binding signal (z-score within array); higher = stronger binding",
  "settings_in_all_cases": "glycan notation: IUPAC condensed, linker removed",
  "key": {"Gal(a1-4)Gal(b1-4)Glc": {"target": "Gal(a1-4)Gal(b1-4)Glc", "method_in_brief": "(§1)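 Glycan array data were curated from 3228 arrays in the Consortium for Functional Glycomics database and kept only where the protein sequence was available. Glycan names were converted to IUPAC-condensed notation, and columns mapping to the same glycan were averaged. The binding signal is a within-array Z-score, averaged across arrays of the same protein sequence at different concentrations or buffers and across linkers. Negative Z-scores can be read as non-binding.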"}, "Gal(a1-4)Gal(b1-4)GlcNAc": {"target": "Gal(a1-4)Gal(b1-4)GlcNAc", "method_in_brief": "as §1"}, "Gal(a1-4)GlcNAc": {"target": "Gal(a1-4)GlcNAc", "method_in_brief": "as §1"}, "Gal(a1-6)Glc": {"target": "Gal(a1-6)Glc", "method_in_brief": "as §1"}, "Gal(b1-2)Gal": {"target": "Gal(b1-2)Gal", "method_in_brief": "as §1"}, "Gal(b1-3)Gal": {"target": "Gal(b1-3)Gal", "method_in_brief": "as §1"}, "Gal(b1-3)GalNAc": {"target": "Gal(b1-3)GalNAc", "method_in_brief": "as §1"}, "[1]": {"target": "Gal(b1-3)GalNAc(b1-3)Gal(a1-4)Gal(b1-4)Glc", "method_in_brief": "as §1"}, "[2]": {"target": "Gal(b1-3)GalNAc(b1-4)Gal(b1-4)Glc", "method_in_brief": "as §1"}, "[3]": {"target": "Gal(b1-3)GalNAc(b1-4)[Neu5Ac(a2-3)]Gal(b1-4)Glc", "method_in_brief": "as §1"}, "Gal(b1-3)GlcNAc": {"target": "Gal(b1-3)GlcNAc", "method_in_brief": "as §1"}, "[4]": {"target": "Gal(b1-3)GlcNAc(b1-3)Gal(b1-4)Glc", "method_in_brief": "as §1"}, "[5]": {"target": "Gal(b1-3)GlcNAc(b1-3)Gal(b1-4)GlcNAc", "method_in_brief": "as §1"}, "[6]": {"target": "Gal(b1-3)[Fuc(a1-4)]GlcNAc", "method_in_brief": "as §1"}, "[7]": {"target": "Gal(b1-3)[Fuc(a1-4)]GlcNAc(b1-3)Gal(b1-4)GlcNAc", "method_in_brief": "as §1"}, "[8]": {"target": "Gal(b1-3)[Fuc(a1-4)]GlcNAc(b1-3)Gal(b1-4)[Fuc(a1-3)]GlcNAc", "method_in_brief": "as §1"}, "[9]": {"target": "Gal(b1-3)[GlcNAc(b1-6)]GalNAc", "method_in_brief": "as §1"}, "[10]": {"target": "Gal(b1-3)[Neu5Ac(a2-6)]GalNAc", "method_in_brief": "as §1"}, "[11]": {"target": "Gal(b1-3)[Neu5Ac(a2-6)]GlcNAc(b1-6)Gal(b1-4)Glc", "method_in_brief": "as §1"}, "[12]": {"target": "Gal(b1-3)[Neu5Ac(b2-6)]GalNAc", "method_in_brief": "as §1"}, "[13]": {"target": "Gal(b1-4)GalNAc(a1-3)[Fuc(a1-2)]Gal(b1-4)GlcNAc", "method_in_brief": "as §1"}, "[14]": {"target": "Gal(b1-4)GalNAc(b1-3)[Fuc(a1-2)]Gal(b1-4)GlcNAc", "method_in_brief": "as §1"}, "Gal(b1-4)Glc": {"target": "Gal(b1-4)Glc", "method_in_brief": "as §1"}, "Gal(b1-4)Glc6S": {"target": "Gal(b1-4)Glc6S", "method_in_brief": "as §1"}, "Gal(b1-4)GlcNAc": {"target": "Gal(b1-4)GlcNAc", "method_in_brief": "as §1"}, "[15]": {"target": "Gal(b1-4)GlcNAc(b1-2)Man(a1-3)[Gal(b1-4)GlcNAc(b1-2)Man(a1-6)]Man(b1-4)GlcNAc(b1-4)GlcNAc", "method_in_brief": "as §1"}, "[16]": {"target": "Gal(b1-4)GlcNAc(b1-3)Gal(b1-4)Glc", "method_in_brief": "as §1"}, "[17]": {"target": "Gal(b1-4)GlcNAc(b1-3)Gal(b1-4)GlcNAc", "method_in_brief": "as §1"}, "[18]": {"target": "Gal(b1-4)GlcNAc(b1-3)Gal(b1-4)GlcNAc(b1-3)Gal(b1-4)GlcNAc", "method_in_brief": "as §1"}, "[19]": {"target": "Gal(b1-4)GlcNAc(b1-3)Gal(b1-4)[Fuc(a1-3)]GlcNAc(b1-3)Gal(b1-4)[Fuc(a1-3)]GlcNAc", "method_in_brief": "as §1"}, "[20]": {"target": "Gal(b1-4)GlcNAc(b1-3)GalNAc", "method_in_brief": "as §1"}, "[21]": {"target": "Gal(b1-4)GlcNAc(b1-3)[Gal(b1-4)GlcNAc(b1-6)]GalNAc", "method_in_brief": "as §1"}, "[22]": {"target": "Gal(b1-4)GlcNAc(b1-6)Gal(b1-4)GlcNAc(b1-6)GalNAc", "method_in_brief": "as §1"}, "[23]": {"target": "Gal(b1-4)GlcNAc(b1-6)GalNAc", "method_in_brief": "as §1"}, "[24]": {"target": "Gal(b1-4)GlcNAc(b1-6)[Gal(b1-3)]GalNAc", "method_in_brief": "as §1"}, "Gal3S(b1-3)GalNAc": {"target": "Gal3S(b1-3)GalNAc", "method_in_brief": "as §1"}, "Gal3S(b1-3)GlcNAc": {"target": "Gal3S(b1-3)GlcNAc", "method_in_brief": "as §1"}, "[25]": {"target": "Gal3S(b1-3)[Fuc(a1-4)]GlcNAc", "method_in_brief": "as §1"}, "Gal3S(b1-4)Glc": {"target": "Gal3S(b1-4)Glc", "method_in_brief": "as §1"}, "Gal3S(b1-4)Glc6S": {"target": "Gal3S(b1-4)Glc6S", "method_in_brief": "as §1"}, "Gal3S(b1-4)GlcNAc": {"target": "Gal3S(b1-4)GlcNAc", "method_in_brief": "as §1"}, "Gal3S(b1-4)GlcNAc6S": {"target": "Gal3S(b1-4)GlcNAc6S", "method_in_brief": "as §1"}, "Gal3S6S(b1-4)GlcNAc": {"target": "Gal3S6S(b1-4)GlcNAc", "method_in_brief": "as §1"}, "Gal3S6S(b1-4)GlcNAc6S": {"target": "Gal3S6S(b1-4)GlcNAc6S", "method_in_brief": "as §1"}, "Gal4S(b1-4)GlcNAc": {"target": "Gal4S(b1-4)GlcNAc", "method_in_brief": "as §1"}},
  "note": "The other results are listed elsewhere or left out.",
  "data": [
    {"binder": "B1", "values": [
      {"measurement": "glycan array binding signal (z-score)", "setting": "Gal(a1-4)Gal(b1-4)Glc", "value": -0.357},
      {"measurement": "glycan array binding signal (z-score)", "setting": "Gal(a1-4)Gal(b1-4)GlcNAc", "value": -0.356},
      {"measurement": "glycan array binding signal (z-score)", "setting": "Gal(a1-4)GlcNAc", "value": -0.345},
      {"measurement": "glycan array binding signal (z-score)", "setting": "Gal(a1-6)Glc", "value": -0.352},
      {"measurement": "glycan array binding signal (z-score)", "setting": "Gal(b1-2)Gal", "value": -0.358},
      {"measurement": "glycan array binding signal (z-score)", "setting": "Gal(b1-3)Gal", "value": -0.353},
      {"measurement": "glycan array binding signal (z-score)", "setting": "Gal(b1-3)GalNAc", "value": -0.345},
      {"measurement": "glycan array binding signal (z-score)", "setting": "[1]", "value": -0.353},
      {"measurement": "glycan array binding signal (z-score)", "setting": "[2]", "value": -0.358},
      {"measurement": "glycan array binding signal (z-score)", "setting": "[3]", "value": -0.359},
      {"measurement": "glycan array binding signal (z-score)", "setting": "Gal(b1-3)GlcNAc", "value": -0.357},
      {"measurement": "glycan array binding signal (z-score)", "setting": "[4]", "value": -0.35},
      {"measurement": "glycan array binding signal (z-score)", "setting": "[5]", "value": -0.355},
      {"measurement": "glycan array binding signal (z-score)", "setting": "[6]", "value": -0.356},
      {"measurement": "glycan array binding signal (z-score)", "setting": "[7]", "value": -0.337},
      {"measurement": "glycan array binding signal (z-score)", "setting": "[8]", "value": -0.36},
      {"measurement": "glycan array binding signal (z-score)", "setting": "[9]", "value": -0.346},
      {"measurement": "glycan array binding signal (z-score)", "setting": "[10]", "value": -0.348},
      {"measurement": "glycan array binding signal (z-score)", "setting": "[11]", "value": -0.353},
      {"measurement": "glycan array binding signal (z-score)", "setting": "[12]", "value": -0.358},
      {"measurement": "glycan array binding signal (z-score)", "setting": "[13]", "value": -0.353},
      {"measurement": "glycan array binding signal (z-score)", "setting": "[14]", "value": -0.365},
      {"measurement": "glycan array binding signal (z-score)", "setting": "Gal(b1-4)Glc", "value": -0.357},
      {"measurement": "glycan array binding signal (z-score)", "setting": "Gal(b1-4)Glc6S", "value": 1.85},
      {"measurement": "glycan array binding signal (z-score)", "setting": "Gal(b1-4)GlcNAc", "value": -0.353},
      {"measurement": "glycan array binding signal (z-score)", "setting": "[15]", "value": -0.328},
      {"measurement": "glycan array binding signal (z-score)", "setting": "[16]", "value": -0.361},
      {"measurement": "glycan array binding signal (z-score)", "setting": "[17]", "value": -0.345},
      {"measurement": "glycan array binding signal (z-score)", "setting": "[18]", "value": -0.358},
      {"measurement": "glycan array binding signal (z-score)", "setting": "[19]", "value": -0.358},
      {"measurement": "glycan array binding signal (z-score)", "setting": "[20]", "value": -0.361},
      {"measurement": "glycan array binding signal (z-score)", "setting": "[21]", "value": -0.345},
      {"measurement": "glycan array binding signal (z-score)", "setting": "[22]", "value": -0.342},
      {"measurement": "glycan array binding signal (z-score)", "setting": "[23]", "value": -0.356},
      {"measurement": "glycan array binding signal (z-score)", "setting": "[24]", "value": -0.355},
      {"measurement": "glycan array binding signal (z-score)", "setting": "Gal3S(b1-3)GalNAc", "value": 1.22},
      {"measurement": "glycan array binding signal (z-score)", "setting": "Gal3S(b1-3)GlcNAc", "value": 4.13},
      {"measurement": "glycan array binding signal (z-score)", "setting": "[25]", "value": -0.359},
      {"measurement": "glycan array binding signal (z-score)", "setting": "Gal3S(b1-4)Glc", "value": 2.59},
      {"measurement": "glycan array binding signal (z-score)", "setting": "Gal3S(b1-4)Glc6S", "value": 2.82},
      {"measurement": "glycan array binding signal (z-score)", "setting": "Gal3S(b1-4)GlcNAc", "value": 2.74},
      {"measurement": "glycan array binding signal (z-score)", "setting": "Gal3S(b1-4)GlcNAc6S", "value": 2.96},
      {"measurement": "glycan array binding signal (z-score)", "setting": "Gal3S6S(b1-4)GlcNAc", "value": -0.312},
      {"measurement": "glycan array binding signal (z-score)", "setting": "Gal3S6S(b1-4)GlcNAc6S", "value": 3.55},
      {"measurement": "glycan array binding signal (z-score)", "setting": "Gal4S(b1-4)GlcNAc", "value": 1.22}
    ]}
  ]
}
